Test results: PubChem BioAssay AID686978 (National Center for Advancing Translational Sciences (NCATS), 2013)
The campaign covered roughly 420,000 compounds. About 64,000 (15%) were called active. Inconclusive results, whose numbers are uncertain, are shown with a selection of clear calls. Calls come from the whole dose curve; as a rule, active = well fitted inhibition curve with a large enough effect; inconclusive = small, poorly fitted or top-dose-only effect; inactive = flat fitted curve, though single readings scatter. Potencies of inconclusive entries are left out as doubtful fits.

Assay: qHTS for Inhibitors of human tyrosyl-DNA phosphodiesterase 1 (TDP1): qHTS in cells in absence of CPT; note: nearly all actives have a fitted effect of over 55% in size
Conditions: DT40 Tdp1-/- hTDP1 cells, no CPT, ATP luminescence, 48 h; activity change, negative = growth inhibition: at 46.2 µM (top of the series) unless noted
Procedure, shortened: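 Stably hTDP1-transfected Tdp1-null chicken DT40 cells were treated with library compounds minus camptothecin and grown for at least 48 hr at 37 °C, after which cellular ATP was quantified by luminescence.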
% is set by controls: 0 for no effect and ±100 for the full control effect; potency is the fitted concentration of half-maximal effect; tags give direction and shape of the fitted curve.

Compound | Potency | activity change, negative = growth inhibition
CCOC(=O)c1ccc(NC2=CC(=O)CC(c3ccco3)C2)cc1 (stereo unspecified) | inconclusive [inhibitor, single point] | –
S=C(Nc1cc(Cl)cc(Cl)c1)NC1CCN(Cc2ccccc2)CC1 | active: 6.51 µM | –
O=C(c1cccs1)N1C[C@H](n2cc(C3CC3)nn2)[C@@H](O)C[C@@H]1c1ccc(Cl)cc1 | inconclusive [inhibitor, single point] | –
CCCCCn1ccc(=N)cc1 | active: 5.17 µM | –
Cc1c(O)ccc(/C(Cc2ccc3ccccc3n2)=N\O)c1O | active: 20.6 µM | –
COc1ccccc1OC(C)C(=O)Nc1ccc(S(=O)(=O)N2CCN(C)CC2)cc1 (stereo unspecified) | – | inactive: 9.16%
COCCCNC(=O)C1CCCN(c2nn3cc(-c4ccc(C)cc4)nc3s2)C1 (stereo unspecified) | inconclusive [inhibitor, single point] | –
Cc1noc(NS(=O)(=O)c2ccc(NC(=O)c3ccc(Br)o3)cc2)c1C | – | inactive: -11.3%
CCCCN1C(=O)C(=O)c2cc(Cl)ccc21 | active: 0.82 µM | –
COc1cc(C#Cc2ccc3cc(C(C)(C)O)oc(=O)c3c2)cc(OC)c1 | inconclusive [inhibitor, partial curve] | –
NC1=NOC(=O)C1C1CCCCC1 (stereo unspecified) | active: 18.4 µM | –
COc1ccc(N(C(=O)c2cccnc2)S(=O)(=O)c2cccs2)cc1 | inconclusive [inhibitor, single point] | –
CC(C)c1nc(SCC(=O)Nc2ccc([N+](=O)[O-])cc2Br)n[nH]1 | inconclusive [inhibitor, partial curve] | –
Cc1ccc2nc(SCC(=O)Nc3ccccc3N3CCOCC3)c(C#N)cc2c1 | active: 3.26 µM | –
O=C(Nc1ccccc1C(=O)OCc1cc(=O)n2c3c(sc2n1)CCCC3)c1cccc(Cl)c1 | inconclusive [inhibitor, single point] | –
CCc1cc(C(=O)Nc2ccc(C)cc2Br)cs1 | inconclusive [inhibitor, single point] | –
CNc1cc(CSC)nc(SCc2ccc(Cl)cc2Cl)n1 | inconclusive [inhibitor, single point] | –
COc1ccc(CCN(C)C(=S)NC(=O)c2ccc(F)cc2Cl)cc1OC | inconclusive [inhibitor, single point] | –
O=C(COc1ccc(Cl)cc1)OCc1ccc(Cl)cc1 | – | inactive: -3.54%
COc1ccc(-c2nnc(C)c3nocc23)cc1 | inconclusive [inhibitor, single point] | –
CC(C)N1CCc2c(sc(NC(=O)c3ccc(S(=O)(=O)N4CCOCC4)cc3)c2C#N)C1 | active: 20.6 µM | –
